{"source": "the supplement of paper PMC8728848", "experiment_in_all_cases": "glycan array binding signal (z-score within array); higher = stronger binding", "settings_in_all_cases": "glycan notation: IUPAC condensed, linker removed", "key": {"[1]": {"target": "Gal(b1-4)GlcNAc(b1-6)GalNAc", "procedure,_shortened": "(§1)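 Glycan array data were curated from 3228 arrays in the Consortium for Functional Glycomics database and kept only where the protein sequence was available. Glycan names were converted to IUPAC-condensed notation, and columns mapping to the same glycan were averaged. The binding signal is a within-array Z-score, averaged across arrays of the same protein sequence at different concentrations or buffers and across linkers. Negative Z-scores can be read as non-binding.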"}, "[2]": {"target": "Gal(b1-4)GlcNAc(b1-6)[Gal(b1-3)]GalNAc", "procedure,_shortened": "as §1"}, "[3]": {"target": "Gal(b1-4)GlcNAc(b1-6)[Gal(b1-4)GlcNAc(b1-3)]GalNAc", "procedure,_shortened": "as §1"}, "[4]": {"target": "Gal(b1-4)GlcNAc6P", "procedure,_shortened": "as §1"}, "[5]": {"target": "Gal(b1-6)Gal", "procedure,_shortened": "as §1"}, "[6]": {"target": "Gal3S(b1-3)GalNAc", "procedure,_shortened": "as §1"}, "[7]": {"target": "Gal3S(b1-3)GlcNAc", "procedure,_shortened": "as §1"}, "[8]": {"target": "Gal3S(b1-3)[Fuc(a1-4)]GlcNAc", "procedure,_shortened": "as §1"}, "[9]": {"target": "Gal3S(b1-4)Glc", "procedure,_shortened": "as §1"}, "[10]": {"target": "Gal3S(b1-4)Glc6S", "procedure,_shortened": "as §1"}, "[11]": {"target": "Gal3S(b1-4)GlcNAc", "procedure,_shortened": "as §1"}, "[12]": {"target": "Gal3S(b1-4)[Fuc(a1-3)]Glc6S", "procedure,_shortened": "as §1"}, "[13]": {"target": "Gal3S(b1-4)[Fuc(a1-3)]GlcNAc", "procedure,_shortened": "as §1"}, "[14]": {"target": "Gal3S(b1-4)[Fuc(a1-3)]GlcNAc6S", "procedure,_shortened": "as §1"}, "[15]": {"target": "Gal3S4S(b1-4)GlcNAc", "procedure,_shortened": "as §1"}, "[16]": {"target": "Gal3S6S(b1-4)GlcNAc", "procedure,_shortened": "as §1"}, "[17]": {"target": "Gal3S6S(b1-4)GlcNAc6S", "procedure,_shortened": "as §1"}, "[18]": {"target": "Gal4S(b1-4)GlcNAc", "procedure,_shortened": "as §1"}, "[19]": {"target": "Gal4S6S(b1-4)GlcNAc", "procedure,_shortened": "as §1"}, "[20]": {"target": "Gal6P(b1-4)GlcNAc", "procedure,_shortened": "as §1"}, "[21]": {"target": "Gal6S(b1-3)GlcNAc", "procedure,_shortened": "as §1"}, "[22]": {"target": "Gal6S(b1-3)GlcNAc6S", "procedure,_shortened": "as §1"}, "[23]": {"target": "Gal6S(b1-4)Glc", "procedure,_shortened": "as §1"}, "[24]": {"target": "Gal6S(b1-4)Glc6S", "procedure,_shortened": "as §1"}, "[25]": {"target": "Gal6S(b1-4)GlcNAc", "procedure,_shortened": "as §1"}, "[26]": {"target": "Gal6S(b1-4)GlcNAc6S", "procedure,_shortened": "as §1"}, "[27]": {"target": "GalNAc(a1-3)Gal", "procedure,_shortened": "as §1"}, "[28]": {"target": "GalNAc(a1-3)GalNAc", "procedure,_shortened": "as §1"}, "[29]": {"target": "GalNAc(a1-3)GalNAc(b1-3)Gal(a1-4)Gal(b1-4)Glc", "procedure,_shortened": "as §1"}, "[30]": {"target": "GalNAc(a1-3)GalNAc(b1-3)Gal(a1-4)Gal(b1-4)GlcNAc", "procedure,_shortened": "as §1"}, "[31]": {"target": "GalNAc(b1-3)Gal", "procedure,_shortened": "as §1"}, "[32]": {"target": "GalNAc(b1-3)Gal(a1-4)Gal(b1-4)GlcNAc", "procedure,_shortened": "as §1"}, "[33]": {"target": "GalNAc(b1-3)Gal(a1-4)Gal(b1-4)GlcNAc(b1-3)Gal(b1-4)Glc", "procedure,_shortened": "as §1"}, "[34]": {"target": "GalNAc(b1-3)Gal(a1-6)Gal(b1-4)Glc", "procedure,_shortened": "as §1"}, "[35]": {"target": "GalNAc(b1-3)GalNAc", "procedure,_shortened": "as §1"}, "[36]": {"target": "GalNAc(b1-3)GlcNAc", "procedure,_shortened": "as §1"}, "[37]": {"target": "GalNAc(b1-4)Gal(b1-4)Glc", "procedure,_shortened": "as §1"}, "[38]": {"target": "GalNAc(b1-4)GlcNAc", "procedure,_shortened": "as §1"}}, "note": "This is one part of the list."}
{"binder": "Cohesin-mDC-ASGPR (Macaca mulatta) (protein) LDITSHHHHHHDDLDAVRIKVDTVNAKPGDTVRIPVRFSGIPSKGIANCDFVYSYDPNVLEIIEIEPGDIIVDPNPDKSFDTAVYPDRKIIVFLFAEDSGTGAYAITKDGVFATIVAKVKEGAPNGLSVIKFVEVGGFANNDLVEQKTQFFDGGVNVGDTTEPATPTTPVTTPTTTDDLDAASSQNSKFQRDLVTLRTDFSNFTSNTVAEIQALTSQGSSVEEMIASLKAEVEVIKQEQQAVHSEMLLRVQRLMQDLNKLTCQVATLKNNASTERTCCPVNWVEHQDSCYWFSRSGMPWAEAEKHCQLENAHLVVINSREEQNFVQEHLSFAYTWMGLSDREGAWKWVDGTDYETGFQNWKPGQPDDWQGHGLGGGEDCAHFHPDGRWNDDVCQRPYYWVCEAGLTQASQESH", "values": [{"measurement": "glycan array binding signal (z-score)", "setting": "[1]", "result": 1.57}, {"measurement": "glycan array binding signal (z-score)", "setting": "[2]", "result": 0.521}, {"measurement": "glycan array binding signal (z-score)", "setting": "[3]", "result": -0.351}, {"measurement": "glycan array binding signal (z-score)", "setting": "[4]", "result": -0.414}, {"measurement": "glycan array binding signal (z-score)", "setting": "[5]", "result": -0.366}, {"measurement": "glycan array binding signal (z-score)", "setting": "[6]", "result": -0.35}, {"measurement": "glycan array binding signal (z-score)", "setting": "[7]", "result": -0.398}, {"measurement": "glycan array binding signal (z-score)", "setting": "[8]", "result": -0.357}, {"measurement": "glycan array binding signal (z-score)", "setting": "[9]", "result": -0.159}, {"measurement": "glycan array binding signal (z-score)", "setting": "[10]", "result": -0.276}, {"measurement": "glycan array binding signal (z-score)", "setting": "[11]", "result": -0.309}, {"measurement": "glycan array binding signal (z-score)", "setting": "[12]", "result": -0.409}, {"measurement": "glycan array binding signal (z-score)", "setting": "[13]", "result": -0.417}, {"measurement": "glycan array binding signal (z-score)", "setting": "[14]", "result": -0.274}, {"measurement": "glycan array binding signal (z-score)", "setting": "[15]", "result": -0.37}, {"measurement": "glycan array binding signal (z-score)", "setting": "[16]", "result": -0.345}, {"measurement": "glycan array binding signal (z-score)", "setting": "[17]", "result": -0.364}, {"measurement": "glycan array binding signal (z-score)", "setting": "[18]", "result": -0.407}, {"measurement": "glycan array binding signal (z-score)", "setting": "[19]", "result": -0.323}, {"measurement": "glycan array binding signal (z-score)", "setting": "[20]", "result": -0.405}, {"measurement": "glycan array binding signal (z-score)", "setting": "[21]", "result": -0.427}, {"measurement": "glycan array binding signal (z-score)", "setting": "[22]", "result": -0.329}, {"measurement": "glycan array binding signal (z-score)", "setting": "[23]", "result": -0.39}, {"measurement": "glycan array binding signal (z-score)", "setting": "[24]", "result": -0.316}, {"measurement": "glycan array binding signal (z-score)", "setting": "[25]", "result": -0.409}, {"measurement": "glycan array binding signal (z-score)", "setting": "[26]", "result": -0.397}, {"measurement": "glycan array binding signal (z-score)", "setting": "[27]", "result": 2.81}, {"measurement": "glycan array binding signal (z-score)", "setting": "[28]", "result": 2.28}, {"measurement": "glycan array binding signal (z-score)", "setting": "[29]", "result": 2.97}, {"measurement": "glycan array binding signal (z-score)", "setting": "[30]", "result": 2.58}, {"measurement": "glycan array binding signal (z-score)", "setting": "[31]", "result": 3.51}, {"measurement": "glycan array binding signal (z-score)", "setting": "[32]", "result": 2.6}, {"measurement": "glycan array binding signal (z-score)", "setting": "[33]", "result": 2.99}, {"measurement": "glycan array binding signal (z-score)", "setting": "[34]", "result": 2.76}, {"measurement": "glycan array binding signal (z-score)", "setting": "[35]", "result": -0.357}, {"measurement": "glycan array binding signal (z-score)", "setting": "[36]", "result": 2.71}, {"measurement": "glycan array binding signal (z-score)", "setting": "[37]", "result": -0.272}, {"measurement": "glycan array binding signal (z-score)", "setting": "[38]", "result": 3.5}]}
